# Results published in patent US9657104B2, “Anti-c-Met/anti-EGFR bispecific antibodies” (Samsung Electronics Co., Ltd., priority 2013, dated 2017).
# B1: huAbF46-H4-A1: affinity-matured humanized anti-c-Met antibody (L3-1 origin) (antibody)
# heavy: EVQLVESGGGLVQPGGSLRLSCAASGFTFTDYYMSWVRQAPGKGLEWLGFIRNKANGYTTEYSASVKGRFTISRDNSKNTLYLQMNSLRAEDTAVYYCARDNWFAYWGQGTLVTVSSASTKGPSVFPLAPSSKSTSGGTAALGCLVKDYFPEPVTVSWNSGALTSGVHTFPAVLQSSGLYSLSSVVTVPSSSLGTQTYICNVNHKPSNTKVDKKVEPKSCDCH[human IgG1 Fc not printed]
# light: DIQMTQSPSSLSASVGDRVTITCKSSQSLLASGNQNNHLAWYQQKPGKAPKMLIIWASTRVSGVPSRFSGSGSGTDFTLTISSLQPEDFATYYCQQSYSRPYTFGQGTKVEIKRTVAAPSVFIFPPSDEQLKSGTASVVCLLNNFYPREAKVQWKVDNALQSGNSQESVTEQDSKDSTYSLSSTLTLSKADYEKHKVYACEVTHQGLSSPVTKSFNRGEC
# Experiments:
# Settings in all cases: among the four antibodies selected in Reference Example 1.7
# [1] = test system: Akt; assay: Akt phosphorylation by affinity-matured antibodies; type: cell-based
# [2] = test system: c-Met; assay: Affinity for c-Met of affinity-matured antibodies; type: binding
# [3] = test system: c-Met; assay: c-Met degradation degree of affinity-matured antibodies; type: cell-based
molecule,measurement,setting,value
B1,Akt phosphorylation,[1],lowest
same,affinity for c-Met,[2],highest
same,c-Met degradation degree,[3],lowest
